This continues a long series; more values of the same kind are listed elsewhere.
Target: T1, Epac2^Δ280 (Mus musculus, UniProt Q9EQZ6)
T1 construct: made in house
T1 sequence (Q9EQZ6 281-993 isoform Q9EQZ6-3): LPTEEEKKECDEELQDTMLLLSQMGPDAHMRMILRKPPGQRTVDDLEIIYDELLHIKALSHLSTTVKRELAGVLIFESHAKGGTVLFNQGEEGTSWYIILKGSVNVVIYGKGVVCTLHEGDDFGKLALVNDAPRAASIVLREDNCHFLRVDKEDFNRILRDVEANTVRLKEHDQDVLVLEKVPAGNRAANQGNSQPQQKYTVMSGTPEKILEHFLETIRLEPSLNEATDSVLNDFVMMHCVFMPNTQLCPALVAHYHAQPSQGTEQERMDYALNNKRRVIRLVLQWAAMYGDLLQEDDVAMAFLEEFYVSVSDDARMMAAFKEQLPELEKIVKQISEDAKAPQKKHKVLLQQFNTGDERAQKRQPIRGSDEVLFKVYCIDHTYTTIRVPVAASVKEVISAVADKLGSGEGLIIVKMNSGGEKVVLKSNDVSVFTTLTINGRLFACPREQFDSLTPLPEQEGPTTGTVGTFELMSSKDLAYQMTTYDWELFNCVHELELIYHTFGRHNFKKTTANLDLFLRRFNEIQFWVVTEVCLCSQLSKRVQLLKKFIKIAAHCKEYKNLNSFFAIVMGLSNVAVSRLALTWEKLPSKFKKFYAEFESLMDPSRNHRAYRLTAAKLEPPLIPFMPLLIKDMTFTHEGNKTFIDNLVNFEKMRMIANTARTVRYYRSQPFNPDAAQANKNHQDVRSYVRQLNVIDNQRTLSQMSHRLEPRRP
Test: Epac activation assay (Rap1B•mGDP fluorescence nucleotide exchange), Epac2^Δ280
Type: biochemical
Protocol: Murine Epac2 was used as all previous structural studies were performed with it.
The activity of Epac was determined by a fluorescence assay. […] The fluorescence intensity of Rap1B•mGDP is approximately twice that of free mGDP, and thus, nucleotide exchange can be observed as a decay in fluorescence upon the addition of excess unlabeled GDP.

Nc1ncnc2c1nc(SCc1ccccc1)n2[C@@H]1O[C@@H]2CO[P@](O)(=S)O[C@H]2[C@H]1O [S-220, Sp-8-BnT-cAMPS]
kobs (0.003 μM compound): 6.6e-05 s⁻¹
kobs (0.005 μM compound): 8.7e-05 s⁻¹
kobs (0.008 μM compound): 0.000124 s⁻¹
kobs (0.01 μM compound): 0.000139 s⁻¹
kobs (0.02 μM compound): 0.000268 s⁻¹
kobs (0.03 μM compound): 0.000364 s⁻¹
kobs (0.8 μM compound): 0.00192 s⁻¹
kobs (1 μM compound): 0.00206 s⁻¹
kobs (2 μM compound): 0.00234 s⁻¹
kobs (3 μM compound): 0.00241 s⁻¹
kobs (4 μM compound): 0.00238 s⁻¹
kobs (5 μM compound): 0.00238 s⁻¹
kobs (6 μM compound): 0.00231 s⁻¹
kobs (7 μM compound): 0.00237 s⁻¹
kobs (8 μM compound): 0.00235 s⁻¹
kobs (10 μM compound): 0.00231 s⁻¹

Nc1ncnc2c1ncn2[C@@H]1O[C@@H]2COP(=O)(O)O[C@H]2[C@H]1O [cAMP, reference compound]
kobs (0.01 μM compound): 2.7e-05 s⁻¹
kobs (0.05 μM compound): 3.5e-05 s⁻¹
kobs (0.08 μM compound): 4.1e-05 s⁻¹
kobs (0.1 μM compound): 4.5e-05 s⁻¹
kobs (0.2 μM compound): 6.7e-05 s⁻¹
kobs (0.3 μM compound): 8.4e-05 s⁻¹
kobs (40 μM compound): 0.000337 s⁻¹
kobs (50 μM compound): 0.000335 s⁻¹
kobs (60 μM compound): 0.000327 s⁻¹
kobs (70 μM compound): 0.000333 s⁻¹
kobs (80 μM compound): 0.000332 s⁻¹
kobs (100 μM compound): 0.000328 s⁻¹

From publication PMC4300089, “Structure-Guided Design of Selective Epac1 and Epac2 Agonists” (PLoS Biology, 2015)
